Results: US12440573B2, “Antibody-conjugates for targeting of tumours expressing PTK7” (Synaffix B.V., priority 2022, dated 2025)

Assays:
[1] = system: A431 (PTK7+, ATCC CRL-1555) cells; test: In vitro cytotoxicity, resazurin viability; assay type: cell-based; details: 5 days incubation
Method: A431 (PTK7+, ATCC CRL-1555) cells were plated in 96-well plates (10000 cells in 150 μL/well) in DMEM (ATCC) supplemented with 10% fetal bovine serum (FBS) (Invitrogen) and incubated overnight in a humidified atmosphere at 37° C. and 5% CO2. ADCs were added in triplo in a square root of 10 dilution series to obtain a final concentration ranging from 100 nM-0.01 nM. The cells were incubated for 5 days in a humidified atmosphere at 37° C. and 5% CO2. The culture medium was replaced by 0.01 mg/mL resazurin (Sigma Aldrich) in DMEM supplemented with 10% FBS (200 μL/well). After approximately 4 hours in a humidified atmosphere at 37° C. and 5% CO2 the fluorescence was detected with a fluorescence plate reader (Infinite® M1000 Tecan) at 560 nm excitation and 590 nm emission. The relative fluorescent units (RFU) were normalized to cell viability percentage by setting wells without cells at 0% viability and wells with untreated cells at 100% viability (see FIG. 9). IC50 values for ADCs on A431 cells were calculated by non-linear regression using Graphpad prism software and are shown in the table below: […]

[2] = Stability of ADCs in human plasma (DAR by RP-UPLC); assay type: in vitro ADME; details: 0.1 mg/mL, 37° C.; for DAR t = 0: isolated with protA agarose resin
Method: (§1) General procedure for analytical RP-UPLC (DTT treated samples): Prior to RP-UPLC analysis, IgG (10 μL, 1 mg/mL in PBS pH 7.4) was added to 12.5 mM DTT, 100 mM TrisHCl pH 8.0 (40 μL) and incubated for 15 minutes at 37° C. The reaction was quenched by adding 49% acetonitrile, 49% water, 2% formic acid (50 μL). RP-UPLC analysis was performed on a Waters Acquity UPLC-SQD. The sample (5 μL) was injected with 0.4 mL/min onto Bioresolve RP mAb 2.1*150 mm 2.7 μm (Waters) with a column temperature of 70° C. A linear gradient was applied in 9 minutes from 30 to 54% acetonitrile in 0.1% TFA and water. Absorbance of eluted peaks was measured at 215 nm followed by automated integration (MassLynx, Waters) to determine reaction conversion.
(§2) Stability of ADCs in mice and human plasma was tested. Prior to the assay, the plasma was depleted from all IgG using CaptivA® Protein A agarose (1 mL agarose/mL serum). ADCs were added to the depleted human/mouse serum to a final concentration of 0.1 mg/mL followed by incubation at 37° C. At each time point, 0.5 mL was snap frozen and stored at −80° C. until further analysis. To isolate the ADCs after incubation, 20 μl CaptivA® Protein A agarose resin was added to the samples and incubated for 1 hour at room temperature. The resin was washed three times with PBS and subsequently 0.1 M Glycine-HCl pH 2.7 (0.4 mL) was added to elute the ADCs. After elution, the samples were immediately neutralized with 1.0 M Tris pH 8.0 (0.1 mL). The samples were spin-filtered against PBS for three times using Amicon Ultra spin-filter 0.5 mL MWCO 10 kDa (Merck Millipore) and the volume was reduced to 40 μL, yielding a final ADC concentration of approximately 1 mg/mL. Samples were analyzed on RP-UPLC (DTT reduced) to determine the DAR, tables below.

[3] = Stability of ADCs in mice plasma (DAR by RP-UPLC); assay type: in vitro ADME; details: 0.1 mg/mL, 37° C.; for DAR t = 0: isolated with protA agarose resin
Method: as §1, §2

[4] = system: PTK7 expressing NCl—H446 tumor model; test: In vivo efficacy study, NCl—H446 xenograft (Example 30); design: species or system BALB/c nude mice; details: single IV dose; cofetuzumab-3 2.59, 5.18, 10.36 mg/kg; cofetuzumab-5b 2.59, 5.18 mg/kg; cofetuzumab-Aur0101 2.33 mg/kg; up to t=44 days
Method: (§3) NCl—H446, lung cancer xenograft model cell line was maintained in vitro using RPMI-1640 medium supplemented with 10% FBS in humidified cell culture incubator at 37° C. with standard 5% CO2 specs. The cells in an exponential growth phase were harvested and counted for tumor inoculation.
BALB/c nude mice (female) of 7-9 weeks old received a subcutaneous injection in the right front flank region with 5×10^6 tumor cells in 0.1 ml of PBS mixed with Matrigel (1:1) for tumor development. When tumors reached an average size of 100-200 mm^3, randomization was performed into 10 groups of 8 mice and treatment began. Randomization will be performed based on “Matched distribution” method (Study Director™ Software, version 3.1.399.19). The date of randomization will be denoted as day 0.
(§4) Electronic caliper measurement were performed 2 times a week. Daily observations for clinical signs, food and water consumption, behavioral changes, animals were weighed 2 times per week. […]
(§5) Observation and data collection. […] Tumor volumes are measured every 3-4 days in two dimensions using an caliper, and the volume data are expressed in mm3 using the formula: V=(L×W×W)/2, where V is tumor volume, L is tumor length (the longest tumor dimension) and W is tumor width (the longest tumor dimension perpendicular to L). […]

[5] = system: PTK7 expressing NCl—H446 tumor model; test: In vivo efficacy study, NCl—H446 xenograft (Example 31); design: species or system BALB/c nude mice; details: 5 mg/kg, single IV dose
Method: as §3
BALB/c nude mice (female) of 7-9 weeks old received a subcutaneous injection in the right front flank region with 5×10^6 tumor cells in 0.1 ml of PBS mixed with Matrigel (1:1) for tumor development. When tumors reached an average size of 100-200 mm^3, randomization was performed into 6 groups of 8 mice and treatment began. Randomization will be performed based on “Matched distribution” method (Study Director™ Software, version 3.1.399.19). The date of randomization will be denoted as day 0.
as §4
as §5, with “collection: After tumor cells inoculation, the animals are checked daily for morbidity and mortality.” for “collection.”

B1: cofetuzumab-4 (conjugate)
heavy: QVQLVQSGPEVKKPGASVKVSCKASGYTFTDYAVHWVRQAPGKRLEWIGVISTYNDYTYNNQDFKGRVTMTRDTSASTAYMELSRLRSEDTAVYYCARGNSYFYALDYWGQGTSVTVSS[left out - human IgG1 constant region]
light: EIVLTQSPATLSLSPGERATLSCRASESVDSYGKSFMHWYQQKPGQAPRLLIYRASNLESGIPARFSGSGSGTDFTLTISSLEPEDFAVYYCQQSNEDPWTFGGGTKLEIKRTVAAPSVFIFPPSDEQLKSGTASVVCLLNNFYPREAKVQWKVDNALQSGNSQESVTEQDSKDSTYSLSSTLTLSKADYEKHKVYACEVTHQGLSSPVTKSFNRGEC
- IC50 [1]: 3.9 nM
- DAR t = 3 [2]: 3.91
- DAR t = 7 [2]: 3.90
- DAR t = 14 [2]: 3.88
- DAR t = 14, % of t = 0 [2]: 99%
- DAR t = 0 [2]: 3.93
- DAR t = 1 [3]: 3.78
- DAR t = 3 [3]: 3.81
- DAR t = 7 [3]: 3.57
- DAR t = 7, % of t = 0 [3]: 92%
- DAR t = 0 [3]: 3.90

B2: cofetuzumab-3 (conjugate)
heavy: B1 heavy
light: B1 light
- in vivo efficacy (tumor volume over time) [4]: tumor regression with a clear dose-response
- DAR t = 3 [2]: 3.88
- DAR t = 7 [2]: 3.80
- DAR t = 14 [2]: 3.80
- DAR t = 14, % of t = 0 [2]: 97%
- DAR t = 0 [2]: 3.91
- in vivo efficacy (tumor volume over time) [5]: tumor growth inhibition, but also early regrowth of the tumor
- DAR t = 1 [3]: 3.89
- DAR t = 3 [3]: 3.88
- DAR t = 7 [3]: 3.86
- DAR t = 7, % of t = 0 [3]: 99%
- DAR t = 0 [3]: 3.90
